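Values below derive from 48-hour exposures of cells grown in 96-well plates, with endpoints linearly interpolated between the two concentrations bracketing the appropriate inhibition level. GI50 is the concentration that inhibits growth by half. TGI marks complete inhibition of growth.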 Square brackets hold non-standard residues; d marks the D form. Peptide text beside a SMILES is read from it. * marks the point of attachment. AllylGly = C=CC[CH](N)C(=O)O; Boc = CC(C)(C)OC(=O)*; OtBu = CC(C)(C)O*

The test system of the test is NCI-H322M lung. Nature of the test: NCI-60 cell line screen, 48 h.
Molecule `Cc1cc(C)nc(NS(=O)(=O)c2ccc(Nc3c4ccccc4nc4c(C(=O)NCCCN(CCO)CCO)cccc34)cc2)n1` displayed a TGI of 57.8 µM. As for `O=P(O)(O)c1ccccc1` (tested in a mixture with another compound), the TGI is greater than 100 µM.

`CN1CCCNc2c(c(=O)c2=O)NCCCN(C)CCCNc2c(c(=O)c2=O)NCCCN(C)CCCNc2c(c(=O)c2=O)NCCCN(C)CCCNc2c(c(=O)c2=O)NCCCN(C)CCCNc2c(c(=O)c2=O)NCCCN(C)CCCNc2c(c(=O)c2=O)NCCCN(C)CCCNc2c(c(=O)c2=O)NCCC1`: the GI50 was 4.77 µM and the TGI was 10.7 µM. In turn, `NC(N)=NS(=O)(=O)c1ccc(NCc2c3ccccc3nc3ccccc23)cc1` registered a TGI greater than 100 µM.

`C=CCC(NC(=O)C(CC(=O)OC(C)(C)C)NC(=O)OC(C)(C)C)C(=O)OC` (stereo not given) (Boc-Asp(OtBu)-[AllylGly]-OMe; configuration not given here) gave a TGI greater than 100 µM. The same measure, in the same setting: with `CCOC(=O)N1CCc2cc(OC)c(OC)c3c2C1CC3=O` (stereo not given) the figure was greater than 100 µM. `O=S(O)CCCCCSSCCCCSSCCCCCS(=O)O` showed a TGI greater than 100 µM. In turn, `Clc1ccc(SCCSCCCCCCCCCCSCCSc2ccc(Cl)cc2)cc1` had a TGI greater than 100 µM. Same read-out and setting: then `CCOc1ccc(/C(O)=C/c2nc3ccccc3nc2/C=C(\O)c2ccc(OCC)cc2)cc1`, with greater than 100 µM; and `CC(C)NC(=O)CN1CCN(C2=CC(=O)c3c(O)ccc(O)c3C2=O)CC1`, with 31.5 µM. `C[C@]12CC[C@@H]3c4cc(OCC(F)(F)F)c(O)cc4C(=O)C[C@H]3[C@@H]1CC[C@@H]2O` showed a TGI greater than 100 µM. Still for that read-out and setting: with `CC(C)C1(C)N=C(C(F)(F)F)c2cc(C(=O)C(F)(F)F)c3ccccc3c2N1` (stereo not given) the figure was 18.7 µM; with `COC1=CC(O)(CC(N)=O)c2ccccc2C1=O` (stereo not given), greater than 100 µM; with `CC1C[C@H](OC(N)=O)C(C)CC1=O` (stereo not given in full), greater than 100 µM. For `Cc1[nH]c(=O)nc(N/N=C/c2ccc(Cl)cc2)c1C(=O)NC(C)(CO)CO`, the TGI was greater than 100 µM.

The molecule `Cc1cc(N(CCC#N)S(C)(=O)=O)ccc1C=O` yielded a TGI greater than 100 µM. Regarding `COc1ccc(Nn2c(SCC(=O)Nc3nc(-c4ccc(Cl)cc4)cs3)nc(C)c2C)cc1`, the GI50 was greater than 100 µM and the TGI is greater than 100 µM. For `CCCCCC(O)C1C(=O)OC(C)C(O)/C=C/C=C/C=C/C=C\C=C(\C)C(O)CC(O)CC(O)CC(O)CC(O)CC(O)CC1O` (stereo not given), the GI50 is greater than 100 µM and the TGI is greater than 100 µM. Take `ClC1=C(Cl)C(Cl)=C(Cl)C1=C/C=C/c1ccccc1`: the GI50 is 0.729 µM and the TGI came out at 2.36 µM. For `Nc1c(-c2nc3ccccc3s2)c2ccc([N+](=O)[O-])cc2c(=O)n1-c1cccc(C(=O)O)c1`, the TGI turned out to be 69.9 µM. The same measure, in the same setting: then `CCc1n[nH]c(=O)n1/N=C/c1ccccc1Cl`, with greater than 100 µM; and `CC1CC[C@@]2(OC1)OC1C[C@H]3[C@@H]4C/C(=N\N(C)C)[C@@]5(O)CC(O)CC[C@]5(C)[C@H]4CC[C@]3(C)C1[C@@H]2C` (stereo not given in full), with 82.9 µM; and `CC(=O)OCC1OC(n2c3c(c(-c4ccco4)c(C#N)c2=S)CCC3)C(OC(C)=O)C(OC(C)=O)C1OC(C)=O` (stereo not given), with greater than 100 µM.

Consider `CN(C)c1ccc(/C=C(/NC(=O)c2ccccc2)c2nc3ccc(Cl)cc3[nH]2)cc1`, for which the GI50 is greater than 100 µM and the TGI was greater than 100 µM. The molecule `Cc1ccc(-c2nc(SCC(=O)O)n[nH]2)cc1` returned a TGI greater than 100 µM.

`COc1ccc(C2SCC(=O)N2c2ccc(-n3c(-c4ccccc4)nc4ccccc4c3=O)cc2)cc1OC` (stereo not given) registered a TGI greater than 100 µM. Turning to `CCC[CH2][Sn]([CH2]CCC)([O]C(=O)c1cc(F)cc(F)c1)[O]C(=O)c1cc(F)cc(F)c1`, the GI50 was 1.74 µM and the TGI was 3.2 µM. In turn, `CCCCC(=O)Nc1ccc2cc(C(=O)OC)c(ON3C(=O)c4ccccc4C3=O)nc2n1` had a TGI of 77.6 µM. On the same count and under the same terms, then `O=C(O)C1C(C(=O)Nc2ccc3c(c2)Cc2ccccc2-3)C2(Cl)C(Cl)=C(Cl)C1(Cl)C2(Cl)Cl` (stereo not given), with greater than 100 µM.

(Values after PubChem BioAssay (NCI).)
